Reference: the supplement of paper PMC4166925
± gives the standard deviation of the averaged measurements. In all, about 33,000 sequences were measured (“E-score (dimensionless, -0.5 to 0.5)”: median about -0.049, highest 2% from about 0.37 on). The list shows a part of the results.

System: T1, PmTbr T-box DNA-binding domain (GST fusion)
T1 sequence: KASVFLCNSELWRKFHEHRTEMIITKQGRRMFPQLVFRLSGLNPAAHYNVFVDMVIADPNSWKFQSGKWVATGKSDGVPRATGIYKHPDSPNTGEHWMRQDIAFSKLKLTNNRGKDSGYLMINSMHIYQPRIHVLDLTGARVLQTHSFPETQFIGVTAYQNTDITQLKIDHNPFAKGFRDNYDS
Test: PBM E-score of 8-mer (E-score (dimensionless, -0.5 to 0.5)); Tbr is Tbrain of the sea star Patiria miniata (Pm) or the sea urchin Strongylocentrotus purpuratus (Sp); higher = stronger binding preference; most listed sequences are background and not binding sites
Settings: the construct has about 5 more residues each side
Summary of the method: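 Expression of GST-fused Tbr T-box DNA-binding domains, each holding the full T-box plus roughly five flanking residues, was carried out in BL21 E. coli at 20 °C, with purification by glutathione affinity chromatography. Universal Agilent arrays made double-stranded by primer extension were incubated with the protein at 200 nM in PBS (pH 7.5), then scanned and quantified. All ungapped 8-mers were scored from probe intensities, and each received an enrichment E-score from the Universal PBM Analysis Suite, averaged over duplicate arrays.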

Row | Sequence | PBM E-score of 8-mer
1 | CGTCTAAA | -0.169 ± 0.012
2 | CCGGCATA | -0.27 ± 0.0033
3 | AACAATGC | -0.0597 ± 0.035
4 | TCTCCACA | 0.0702 ± 0.028
5 | CACTGCGG | -0.0164 ± 0.029
6 | CAGAGGCC | -0.0516 ± 0.092
7 | GTATGGAC | -0.261 ± 0.022
8 | GCGCACGA | 0.205 ± 0.034
9 | GGATATCA | 0.0244 ± 0.043
10 | AAGACCCT | -0.25 ± 0.032
11 | AAGGACCC | -0.16 ± 0.038
12 | ACGAGATA | -0.0492 ± 0.019
13 | GAAAATCC | -0.0645 ± 0.025
14 | AACTCCCC | 0.012 ± 0.024
15 | TCTACTCA | -0.148 ± 0.095
16 | CCTATTCA | -0.00562 ± 0.0076
17 | CCGTAATC | -0.292 ± 0.035
18 | CACTTGGC | 0.236 ± 0.038
19 | CCGTCGTA | -0.0585 ± 0.074
20 | CCTTAGAG | -0.0813 ± 0.0078
21 | CGAACTCG | 0.111 ± 0.044
22 | AGGCGATG | 0.262 ± 0.066
23 | GAGAGGAC | -0.0422 ± 0.042
24 | CCTCAGCA | 0.171 ± 0.027
25 | ACTCGCAG | 0.0856 ± 0.036

Row | Sequence | PBM E-score of 8-mer
26 | TTATAAAA | -0.178 ± 0.16
27 | GAACTGTC | 0.224 ± 0.037
28 | AACTCCCA | -0.116 ± 0.043
29 | ACACCTTG | 0.481 ± 0.0055
30 | AGGCCTAA | -0.152 ± 0.053
31 | ATAATATG | 0.0176 ± 0.0027
32 | CCCCTGTC | 0.0837 ± 0.059
33 | CCGTTTTC | -0.148 ± 0.0081
34 | ACCTTGTA | 0.0536 ± 0.036
35 | GATCCCTA | -0.0615 ± 0.069
36 | GTCGGTGA | 0.0735 ± 0.024
37 | CACGAAAA | -0.0134 ± 0.06
38 | CAAAACTA | -0.0488 ± 0.099
39 | AAGCTGCC | -0.00336 ± 0.034
40 | AATCCTCA | -0.131 ± 0.017
41 | GGATCGAA | -0.26 ± 0.04
42 | CAACCGTA | -0.232 ± 0.0094
43 | AAATAGCG | 0.202 ± 0.026
44 | CGCTATCA | 0.233 ± 0.0098
45 | GACGCACC | 0.0867 ± 0.088
46 | ACGCTGCA | -0.0255 ± 0.039
47 | CCGAGAAC | 0.178 ± 0.035
48 | AAGCTCAT | -0.0854 ± 0.021
49 | CCTCACCC | 0.181 ± 0.075
50 | GCTCTCAC | 0.315 ± 0.0058

Row | Sequence | PBM E-score of 8-mer
51 | AGGATCCA | -0.102 ± 0.013
52 | AACCTCTT | -0.205 ± 0.095
53 | AACGCTAC | -0.0105 ± 0.07
54 | GCAAATCA | 0.126 ± 0.025
55 | ATATCGTC | 0.108 ± 0.035
56 | AAGTCCGC | 0.0371 ± 0.017
57 | CTCCGCTA | 0.101 ± 0.021
58 | CGCCTGCC | 0.263 ± 0.0064
59 | GCTACCGA | 0.0575 ± 0.082
60 | AGGTCCGG | -0.276 ± 0.07
61 | ACAGAACG | 0.00384 ± 0.043
62 | GAAAGTTC | -0.112 ± 0.0094
63 | GATCGAAA | -0.164 ± 0.081
64 | GAAGATTC | -0.0862 ± 0.056
65 | AAGAGTTC | -0.241 ± 0.015
66 | TCCTTCGA | -0.125 ± 0.026
67 | ATAAGGTA | 0.0248 ± 0.096
68 | CCGCCTAA | -0.178 ± 0.0036
69 | GCTGCCGA | -0.0169 ± 0.12
70 | GTACTCTA | -0.185 ± 0.011
71 | CTTTCGCC | -0.0672 ± 0.025
72 | GAACACTC | 0.0811 ± 0.024
73 | ACAACGCT | 0.168 ± 0.0037
74 | AGTAGGTA | -0.0493 ± 0.079
75 | AGACAAGA | -0.16 ± 0.047

Row | Sequence | PBM E-score of 8-mer
76 | TAACACAA | 0.313 ± 0.0094
77 | CGGTAGAC | -0.145 ± 0.0061
78 | AATTGCGA | 0.285 ± 0.0031
79 | AACGTCCT | -0.202 ± 0.044
80 | AATATCAA | 0.0637 ± 0.1
81 | AGCTTGGA | -0.1 ± 0.021
82 | ACAGGTCC | 0.0798 ± 0.068
83 | AGATCTTC | 0.127 ± 0.021
84 | GATAGAAC | -0.084 ± 0.039
85 | ATTGCTGA | -0.0602 ± 0.042
86 | ATCCGGAC | -0.106 ± 0.047
87 | CTCGAGCC | -0.182 ± 0.013
88 | AAGAACGC | -0.22 ± 0.033
89 | ATTGGTTG | -0.281 ± 0.035
90 | CTGTAATA | 0.0664 ± 0.053
91 | ATAAAAAT | -0.065 ± 0.15
92 | CCCGGGGA | -0.0818 ± 0.0019
93 | CCCCATTA | -0.155 ± 0.0091
94 | ATTTACAC | 0.318 ± 0.06
95 | GAATGTAC | -0.0286 ± 0.0058
96 | CCGGCCAG | -0.0265 ± 0.056
97 | CAATGTAC | -0.0989 ± 0.028
98 | GGATCAAC | -0.0228 ± 0.035
99 | ATACTAGC | 0.08396 ± 9.2e-05
100 | GATGACTA | -0.194 ± 0.0088

Row | Sequence | PBM E-score of 8-mer
101 | ATTAGGAA | -0.146 ± 0.019
102 | AACGTTAA | -0.043 ± 0.00075
103 | AGCGGACT | -0.215 ± 0.031
104 | GATTTCCC | -0.0739 ± 0.12
105 | CGGCTAAC | 0.0126 ± 0.015
106 | AAGTAATG | -0.0413 ± 0.069
107 | CGGACGGC | -0.172 ± 0.023
108 | AGTTCGCC | 0.0555 ± 0.091
109 | ATGTGGCA | 0.256 ± 0.0097
110 | AATGCTAG | -0.0869 ± 0.0055
111 | AAGCGATA | 0.198 ± 0.033
112 | CGGAGATC | -0.19 ± 0.032
113 | CAACTCTA | 0.0709 ± 0.032
114 | ACCTTATG | 0.131 ± 0.075
115 | GTCAATAA | 0.0466 ± 0.054
116 | TATGATGA | -0.156 ± 0.037
117 | CGCTACAA | 0.0744 ± 0.055
118 | AAGTTTTG | 0.049 ± 0.13
119 | CGAAACGA | 0.2163 ± 0.0013
120 | GCGGGCGA | 0.02876 ± 0.00013
121 | AGATCTAC | -0.114 ± 0.069
122 | ATAGATGC | -0.0482 ± 0.036
123 | CAGTCGGA | -0.0653 ± 0.029
124 | CTGAGTGC | 0.0699 ± 0.053
125 | CTACTAAA | -0.158 ± 0.075

Row | Sequence | PBM E-score of 8-mer
126 | CTTGGTTA | -0.122 ± 0.063
127 | GACCCGTA | -0.0692 ± 0.019
128 | CCGGGCCA | -0.128 ± 0.0042
129 | GTAAAGCA | -0.27 ± 0.06
130 | ATAAATAC | -0.0571 ± 0.11
131 | AAATAATC | 0.0627 ± 0.091
132 | ACGCGTTC | 0.138 ± 0.014
133 | CGACTCCG | 0.0188 ± 0.066
134 | TGGGCAAA | 0.0013 ± 0.12
135 | AAAGCGCA | -0.0352 ± 0.027
136 | CTAAAATA | 0.0202 ± 0.064
137 | GAGCCATC | -0.0135 ± 0.0062
138 | CCACGAAA | -2e-05 ± 0.0046
139 | CCCTCCCG | -0.199 ± 0.019
140 | AACTCCCG | -0.0998 ± 0.034
141 | TTACTCAA | -0.0164 ± 0.0015
142 | CATGCCAA | -0.0187 ± 0.084
143 | ATGAAAGA | 0.0147 ± 0.061
144 | ACTCGGCC | 0.0187 ± 0.094
145 | CTTCCCCC | -0.166 ± 0.07
146 | ATGCATAC | -0.0833 ± 0.01
147 | AGCCATAG | -0.0194 ± 0.015
148 | AGTGGTGA | 0.23181 ± 0.00023
149 | ACAAAACA | 0.15 ± 0.026
150 | CCGGACGC | -0.215 ± 0.11

Row | Sequence | PBM E-score of 8-mer
151 | ATGTAGTG | 0.077 ± 0.043
152 | GTTATAAA | 0.099 ± 0.062
153 | CTCACAGA | 0.118 ± 0.06
154 | GTTAGTAA | -0.0176 ± 0.018
155 | AAGACTTG | -0.0606 ± 0.04
156 | AGTTGCAG | -0.0251 ± 0.01
157 | ACTTGATA | 0.136 ± 0.066
158 | CTGCGCCC | -0.159 ± 0.12
159 | CCTTTACC | -0.0485 ± 0.032
160 | CGATTGCG | 0.0928 ± 0.028
161 | AAGCTCCC | -0.33 ± 0.026
162 | GGTTATGA | -0.107 ± 0.053
163 | GGTGATCA | 0.247 ± 0.025
164 | CAGGCTCA | -0.243 ± 0.0038
165 | GGCTAAGA | -0.278 ± 0.05
166 | AACCAGTT | -0.0812 ± 0.0099
167 | AGCGCCGG | 0.00509 ± 0.059
168 | ACGGAGTA | -0.279 ± 0.052
169 | AGACATTG | -0.181 ± 0.025
170 | TACTGAAA | -0.104 ± 0.051
171 | GCCCCGAC | -0.132 ± 0.069
172 | CGTACACC | 0.0939 ± 0.0018
